Measurements taken from PubChem BioAssay AID504332 (National Center for Advancing Translational Sciences (NCATS), 2011).
About 31,000 (8.9%) of roughly 350,000 compounds were called active. The shares of active, inactive and inconclusive entries below differ from those in the screen. Calls follow the shape of the dose curve; as a rule, active = well fitted inhibition curve with a large enough effect; inconclusive = small, poorly fitted or top-dose-only effect; inactive = no such curve, though single readings can be large or run the other way. Potencies of inconclusive entries are doubtful fits and often do not repeat.

Target: Histone-lysine N-methyltransferase EHMT2 (Homo sapiens) (UniProt Q96KQ7)
Sequence of UniProt Q96KQ7 (Q96KQ7 whole entry, looked up): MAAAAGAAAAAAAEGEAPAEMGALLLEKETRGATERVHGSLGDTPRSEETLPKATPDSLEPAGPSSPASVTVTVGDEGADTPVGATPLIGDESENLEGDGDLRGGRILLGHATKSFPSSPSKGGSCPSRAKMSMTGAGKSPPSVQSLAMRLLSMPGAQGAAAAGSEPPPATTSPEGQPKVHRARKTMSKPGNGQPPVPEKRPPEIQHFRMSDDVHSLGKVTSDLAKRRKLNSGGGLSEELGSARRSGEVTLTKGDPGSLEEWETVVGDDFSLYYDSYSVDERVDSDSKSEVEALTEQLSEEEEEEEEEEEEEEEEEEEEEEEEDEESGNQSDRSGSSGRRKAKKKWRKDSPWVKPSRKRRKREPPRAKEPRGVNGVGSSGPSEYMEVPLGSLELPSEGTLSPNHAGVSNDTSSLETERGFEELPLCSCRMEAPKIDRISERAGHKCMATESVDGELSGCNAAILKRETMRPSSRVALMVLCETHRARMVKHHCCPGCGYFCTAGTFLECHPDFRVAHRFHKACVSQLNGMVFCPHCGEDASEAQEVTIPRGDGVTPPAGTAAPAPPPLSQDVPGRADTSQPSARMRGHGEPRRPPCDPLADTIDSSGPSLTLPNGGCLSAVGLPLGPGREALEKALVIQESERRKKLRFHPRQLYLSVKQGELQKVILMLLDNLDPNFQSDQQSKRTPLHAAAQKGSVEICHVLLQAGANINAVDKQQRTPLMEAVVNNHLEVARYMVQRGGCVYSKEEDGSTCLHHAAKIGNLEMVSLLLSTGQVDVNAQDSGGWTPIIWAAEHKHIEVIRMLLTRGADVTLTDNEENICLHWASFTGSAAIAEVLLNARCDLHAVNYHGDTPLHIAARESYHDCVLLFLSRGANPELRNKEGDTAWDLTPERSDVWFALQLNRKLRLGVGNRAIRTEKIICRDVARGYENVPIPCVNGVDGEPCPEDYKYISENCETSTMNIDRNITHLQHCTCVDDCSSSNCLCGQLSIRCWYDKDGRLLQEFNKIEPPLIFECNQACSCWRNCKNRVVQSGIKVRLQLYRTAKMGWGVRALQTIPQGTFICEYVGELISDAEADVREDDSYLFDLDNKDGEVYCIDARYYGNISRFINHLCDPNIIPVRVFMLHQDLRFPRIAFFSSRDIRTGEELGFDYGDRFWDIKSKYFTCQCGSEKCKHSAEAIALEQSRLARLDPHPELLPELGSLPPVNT
Test: qHTS Assay for Inhibitors of Histone Lysine Methyltransferase G9a; also: nearly all actives have a fitted effect of over 75% in size
Conditions: G9a H3K9 monomethylation, AlphaScreen, 2 h; activity, negative = inhibition: at 59 µM (top of the series) unless noted
Outline: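 Signal arises when biotinylated H3K9 peptide, once monomethylated, bridges streptavidin donor and antibody-captured acceptor beads. Enzyme at 20 nM was preincubated 15 min with test compounds; peptide 500 nM and SAM 20 uM then reacted for 2 h.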
% is scaled to controls: 0 for no effect and ±100 for the full control effect; potency is read from the fitted curve at half-maximal effect; tags tell the direction and shape of the fitted curve.

SMILES | activity, negative = inhibition | Potency
CCOc1ccc(-c2cc(C(=O)Oc3ccc(C#N)cc3)no2)cc1 | inactive: -4.43% | –
CCCC(=O)Nc1nc(C)c(-c2csc(Nc3ccccc3OC)n2)s1 | – | inconclusive: 20 µM [inhibitor, partial curve, poor fit]
O=C(CSc1nnc(-c2ccccc2)n1-c1ccccc1)NCc1ccco1 | – | inconclusive: 44.7 µM [inhibitor, full curve]
CC(=O)n1nc(-c2ccc(Cl)cc2)nc1NCc1ccco1 | inactive: 22.5% [at 102 µM] | –
CCS(=O)(=O)NC(C)C(c1cccs1)N1CCN(c2ccc(OC)cc2)CC1 (centres undefined) | – | active: 14.1 µM
C/C(Cn1cnc([N+](=O)[O-])n1)=N/NC(=O)COc1ccccc1Cl | – | inconclusive: 8.91 µM [inhibitor, full curve, poor fit]
COc1cc(C(=O)NCc2ccc3[nH]c(C)cc3c2)cc(OC)c1OC | – | inconclusive: 89.1 µM [inhibitor, single point]
CCOc1ccc(Cn2c(SCCCCC#N)nc3c2c(=O)n(C)c(=O)n3C)cc1OCC | – | active: 35.5 µM
Cc1ccc2[nH]c(=O)c(CN(C)C(=O)c3cccs3)cc2c1 | inactive: 2.89% [at 102 µM] | –
Cc1cc(C(=O)NCc2cccs2)c(C)o1 | – | inconclusive: 28.2 µM [inhibitor, single point]
NC(N)=Nc1nc(CCN2C(=O)c3ccccc3C2=O)cs1 | – | inconclusive: 79.4 µM [inhibitor, partial curve, poor fit]
CC(C)(C)n1nnnc1C(c1ccccn1)N1CCN(C(c2ccccc2)c2ccccc2)CC1 (centres undefined) | – | inconclusive: 56.2 µM [inhibitor, partial curve, poor fit]
COC(=O)c1ccc(NC2CC(=O)N(c3ccccc3C)C2=O)cc1 (centres undefined) | inconclusive: -59.3% [inhibitor] | –
COC(=O)C1=C(C)N(c2ccc(Cl)c(Cl)c2)C(=O)C1 | – | inconclusive: 39.8 µM [inhibitor, single point]
O=C1C=C(Nc2ccc(Cl)cc2)CC(c2ccco2)C1 (centres undefined) | – | inconclusive: 31.6 µM [inhibitor, single point]
Cc1ccc(C)c(NC(=S)NNC(=O)c2csc(C)c2)c1 | – | inconclusive: 22.4 µM [inhibitor, single point]
c1ccc(C2=NNC(=NC3CC3)SC2)cc1 | – | inconclusive: 2 µM [inhibitor, partial curve, poor fit]
Cc1cccc(N=C2NC(=O)/C(=C3/C(=O)N(C)c4ccccc43)S2)c1C | – | inconclusive: 89.1 µM [inhibitor, single point]
Cc1c(Cl)cnc(NC(=O)COC(=O)c2ccc([N+](=O)[O-])s2)c1Cl | – | active: 25.1 µM
CC(=O)n1cc(/C=N/NC(N)=S)c2ccccc21 | – | inconclusive: 44.7 µM [inhibitor, partial curve, poor fit]
CCOc1ccc(N(CC)S(=O)(=O)N2CCCC(C(=O)Nc3ccc(C(C)=O)cc3)C2)cc1 (centres undefined) | inactive: -2.74% | –
CCC(c1c(C)[nH]oc1=O)c1c(C)[nH]oc1=O | – | inconclusive: 25.1 µM [inhibitor, full curve, poor fit]
COc1ccc(C(=O)CCC(=O)Nc2cc(Cl)c(O)c(Cl)c2)cc1 | inactive: -31.6% [at 2.33 µM] | –

SMILES | activity, negative = inhibition | Potency
CCN(CC)S(=O)(=O)c1ccc(Cl)c(C(=O)Nc2nncs2)c1 | – | inconclusive: 2.51 µM [inhibitor, partial curve, poor fit]
O=C(NC(=S)Nc1ccc(Cl)c(C(=O)O)c1)c1cccc(COc2ccccc2)c1 | inactive: 3.99% [at 102 µM] | –
COc1ccc(CN2C(=O)c3cccnc3C2=O)cc1S(=O)(=O)NC1CCCCC1 | inactive: 6.29% [at 102 µM] | –
O=c1cc(CN2CCN(c3ccc(F)cc3)CC2)nc2sccn12 | inconclusive: -88.5% [inhibitor] | –
O=C(NC(=S)NNS(=O)(=O)c1ccc(Cl)cc1)c1cccnc1 | – | active: 50.1 µM
COc1ccc(C(=O)N2CCCC(Nc3ccc(C)c(C)c3)C2)cc1F (centres undefined) | inactive: 10.4% [at 102 µM] | –
S=c1[nH]nc(COc2ccccc2)n1C1CCCCC1 | – | active: 2.51 µM
O=C(CCCn1cnc([N+](=O)[O-])n1)Nc1ccc(Cl)cc1Cl | – | inconclusive: 56.2 µM [inhibitor, partial curve, poor fit]
CCCc1nc2sc3ccccc3c(=O)c2c(=O)n1Cc1ccco1 | – | inconclusive: 1 µM [inhibitor, full curve, poor fit]
CC=CC1=C(C(=O)O)N2C(=O)[C@H](NC(=O)[C@H](N)c3ccc(O)cc3)[C@@H]2SC1 | – | inconclusive: 15.8 µM [inhibitor, partial curve, poor fit]
Cc1c(C(=O)Nc2cccc(Cl)c2)sc2nc3n(c(=O)c12)N=C(c1cccc(Br)c1)CS3 | inactive: -1.16% | –
CCc1ccc(NC(=O)CN2C(=O)C(c3ccc(Cl)cc3)=NC23CCCCC3)cc1 | inactive: 4.43% | –
Cc1c(CCC(=O)NCCc2ccc(Cl)cc2)c(=O)oc2c(C)c(O)ccc12 | inactive: 8.59% | –
O=C(O)CN1C(=O)/C(=C\c2cc(Br)ccc2OCc2ccccc2Cl)SC1=S | – | active: 14.1 µM
COc1c(Cl)cc(C(=O)Nc2ccc(Cl)cn2)cc1Cl | – | inconclusive: 70.8 µM [inhibitor, single point]
O=C1CSC(c2cccc([N+](=O)[O-])c2)N1c1c(F)cccc1F (centres undefined) | – | inconclusive: 70.8 µM [inhibitor, single point]
CCOC(=O)c1ccc(N(C(=O)c2ccco2)C(C(=O)NC2CCCCC2)c2ccncc2)cc1 (centres undefined) | – | inconclusive: 0.141 µM [inhibitor, partial curve, poor fit]
COC(=O)c1sc2nc3c(cc2c1N)COC(C)(C)C3 | – | active: 50.1 µM
COc1ccc(-c2nc(CS(=O)CC(=O)NCc3ccccn3)c(C)o2)cc1 (centres undefined) | – | inconclusive: 22.4 µM [inhibitor, partial curve, poor fit]
O=c1cc(NCc2ccccc2)nc2n1CCCS2 | – | inconclusive: 89.1 µM [inhibitor, single point]
O=C(Nc1ccncc1)c1ccc(NS(=O)(=O)c2ccc3[nH]c(=O)[nH]c3c2)cc1 | – | inconclusive: 31.6 µM [inhibitor, single point]
Cc1ccc(CCC(=O)Nc2ccc(C#N)cc2)o1 | – | active: 39.8 µM
c1ccc(-c2nnc(CN3CCCc4ccccc43)o2)cc1 | – | inconclusive: 1.12 µM [inhibitor, partial curve, poor fit]

SMILES | activity, negative = inhibition | Potency
O=C(NCc1cccs1)c1ccc2c(=O)n3nc(Nc4ccccc4)sc3nc2c1 | inactive: 6.4% | –
COc1ccc(C(=O)CSc2nnc(-c3cccnc3)n2Cc2ccco2)cc1 | – | active: 50.1 µM
O=C(O)c1ccc2c(c1)ncn2C1CCCCCC1 | inactive: 10.2% | –
Cc1c(NC(=O)/C(C#N)=C/c2ccc(-c3ccc(Cl)c(Cl)c3)o2)c(=O)n(-c2ccccc2)n1C | – | inconclusive: 39.8 µM [inhibitor, single point]
Cc1ccc(-n2nnnc2SCC(=O)NC2CCS(=O)(=O)C2)c(C)c1 (centres undefined) | – | inconclusive: 79.4 µM [inhibitor, partial curve, poor fit]
Cc1oc(-c2ccc(Cl)cc2)nc1CS(=O)CC(=O)NCCN1CCCC1 (centres undefined) | – | inconclusive: 100 µM [inhibitor, single point]
CSc1nsc(SC)c1C(=O)O | – | active: 44.7 µM
COc1ccc(Nc2nnc(SCc3cc(=O)n4ccsc4n3)s2)cc1 | – | active: 3.98 µM
COc1ccc(-c2nc(CS(=O)CC(=O)NCCCN3CCCC3)c(C)o2)cc1OC (centres undefined) | inconclusive: -82.6% [inhibitor] [at 12.7 µM] | –
COc1ccc(CNC(=O)C2CC(C)=C(C)CC2C(=O)O)cc1 (centres undefined) | – | inconclusive: 25.1 µM [inhibitor, partial curve, poor fit]
O=c1c2sc3ccccc3c2n(Cc2cccc(F)c2)c(=O)n1Cc1ccccc1 | – | inconclusive: 39.8 µM [inhibitor, single point]
COc1ccc(NS(=O)(=O)c2cccc(C(=O)NCC(c3ccco3)N3CCCCC3)c2)cc1 (centres undefined) | – | inconclusive: 56.2 µM [inhibitor, partial curve, poor fit]
S=c1[nH]c(-c2cccs2)cn1-c1ccccc1 | – | active: 2.51 µM
O=C(Cn1c(=O)n(Cc2nc(-c3ccccc3)no2)c(=O)c2ccccc21)Nc1cccc(C(F)(F)F)c1 | – | inconclusive: 7.08 µM [inhibitor, single point]
Cc1ccc(NC(=S)N2CCN(S(=O)(=O)c3ccccc3)CC2)cc1 | – | inconclusive: 7.94 µM [inhibitor, full curve]
COC(=O)CC1C(=O)NCCN1C(=O)CSc1nc2ccccc2o1 (centres undefined) | – | inconclusive: 89.1 µM [inhibitor, single point]
CCC1Oc2ccc(C)cc2N(CC(=O)N2CCN(c3ccc(F)cc3)CC2)C1=O (centres undefined) | – | active: 44.7 µM
CCOc1ccccc1C(=O)N(Cc1ccco1)Cc1ccco1 | inactive: -6.42% | –
CCCC(c1nnnn1C1CCCC1)N1CCN(C(=O)c2ccco2)CC1 (centres undefined) | – | inconclusive: 20 µM [inhibitor, single point]
COCCN(C(=O)CCCc1nc2ccccc2s1)c1c(N)n(CC(C)C)c(=O)[nH]c1=O | – | inconclusive: 3.16 µM [inhibitor, partial curve, poor fit]
CC(C)c1onc(C(=O)Nc2cccc(Cl)c2)c1[N+](=O)[O-] | – | inconclusive: 28.2 µM [inhibitor, partial curve, poor fit]
COC(=O)c1c(NC(=O)c2ccco2)sc(C)c1C | – | inconclusive: 31.6 µM [inhibitor, single point]
Cc1ccc2[nH]c(=O)c(-c3nc4cc(C)ccn4c3NCc3ccco3)cc2c1 | – | inconclusive: 79.4 µM [inhibitor, partial curve, poor fit]
